Test results from patent US8846873B2, “Antibodies directed to GPNMB and uses thereof” (Celldex Therapeutics, Inc., priority 2004, dated 2014).

Columns and labels:
GPNMB expressing cells = experiment: FACS analysis of binding to GPNMB expressing cells
Experimental: The specificity of anti-GPNMB antibodies to cell membrane-bound GPNMB protein expressed by melanoma cancer cell line, UACC-62 was analyzed by FACS analysis. […] Isotype matched antibody pK16.3 was used as a negative control. Cells were washed twice with PBS (Ca and Mg free), incubated with Versene at 37° C. until cells detached, counted and aliquoted at 1 million cells per assay tube. Cells were then washed twice and resuspended in ice-cold FACS buffer (0.01M HEPES, 0.15M NaCl, 0.1% NaN3 and 4% FBS). Primary antibody at 1 μg/mL was added to the cells. Cells were incubated on ice for 30 min, washed 2-3 times and resuspended in 1 mL of ice-cold FACS buffer. […] After washing 3 times with 1 mL of ice-cold FACS buffer, cells were fixed with 0.5-1 mL of 1% formaldehyde in PBS and analyzed by flow cytometry.
UACC-62 and TK10 cells were plated onto flat bottom 96-well tissue culture plates (Becton Dickinson, Franklin Lakes, N.J., USA). […] On days 8-10, all plates were Giemsa stained and colonies on the plates were counted.
Lymphoma or leukemia cell lines were mixed with methylcellulose base media (R&D Systems, USA) and in various concentrations of unconjugated and Auristatin E-conjugated 1.15.1 antibody before plating onto 6-well tissue culture plates (Becton Dickinson, Franklin Lakes, N.J., USA). […] On days 14-18, colonies on the plates were counted.

GPNMB = target: T1, GPNMB (Homo sapiens, UniProt Q14956); experiment: Binning of antibodies (Luminex competitive binding); details: three bins of six anti-GPNMB antibodies
T1 construct: made in house; host or cells: HEK 293
T1 sequence (Q14956 23-492): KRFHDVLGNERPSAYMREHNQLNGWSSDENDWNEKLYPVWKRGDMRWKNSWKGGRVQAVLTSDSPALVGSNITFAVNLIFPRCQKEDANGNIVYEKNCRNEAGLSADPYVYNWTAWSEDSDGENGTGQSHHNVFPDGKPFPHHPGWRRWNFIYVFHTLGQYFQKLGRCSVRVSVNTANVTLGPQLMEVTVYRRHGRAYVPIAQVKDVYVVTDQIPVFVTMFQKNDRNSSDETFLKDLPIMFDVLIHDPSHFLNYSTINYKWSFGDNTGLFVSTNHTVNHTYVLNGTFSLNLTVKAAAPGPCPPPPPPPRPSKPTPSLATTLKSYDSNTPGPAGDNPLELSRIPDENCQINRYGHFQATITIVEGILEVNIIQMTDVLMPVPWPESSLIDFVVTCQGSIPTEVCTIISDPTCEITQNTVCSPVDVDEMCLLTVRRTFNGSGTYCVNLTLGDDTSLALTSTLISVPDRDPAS
Experimental: Certain antibodies, described herein were binned in accordance with the protocol described in U.S. Patent Application Publication No. 20030157730. MxhIgG conjugated beads are prepared for coupling to primary antibody. The volume of supernatant needed is calculated using the following formula: (n+10)×50 μL (where n=total number of samples on plate). Where the concentration is known, 0.5 μg/mL is used. Bead stock is gently vortexed, then diluted in supernatant to a concentration of 2500 of each bead per well or 0.5×10^5/mL and incubated on a shaker in the dark at RT overnight, or 2 hours if at a known concentration of […]. Following aspiration, 50 μL of each bead is added to each well of filter plate, then washed once by adding 100 μL/well wash buffer and aspirating. Antigen and controls are added to filter plate 50 μL/well then covered and allowed to incubate in the dark for 1 hour on shaker. Following a wash step, a secondary unknown antibody is added at 50 μL/well using the same dilution (or concentration if known) as is used for the primary antibody. The plates are then incubated in the dark for 2 hours at RT on shaker followed by a wash step. Next, 50 μL/well biotinylated mxhIgG diluted 1:500 is added and allowed to incubate in the dark for 1 hour on shaker at RT. […]

Bin (GPNMB): Bin 2
B1: Mab2.3.1: human anti-GPNMB antibody; VH SEQ ID NO: 200, VL SEQ ID NO: 209 (antibody, listed as Homo sapiens, V domains shown)
VH: [about 100 residues not printed]DFFGSGSLLYFDYWGQGTLVTVSSA
VL: DIVMTQTPLSLSVTPGQPASISCKSSQSLLHSGGKTYLYWYLQRPGQPPQLLIYEVSNRFSGVPDRFSGSGSGTDFTLKISRVEAEDVGVYYCMQSIHLPLTFGGGTKVEIKR
binding to GPNMB expressing cells (GPNMB expressing cells): does not bind to GPNMB expressing cells
